# Measurements published in the RNAGym collection of RNA variant scans (doi:10.1101/gad.245936.114).
# Variants at the background level are over-represented here.
# B1: tRNA (parent)
# chain: CUCUCGGUAGCCAAGUUGGUUUAAGGCGCAAGACUUUAAUUUAUCACUACGAAAUCUUGAGAUCGGGCGUUCGACUCGCCCCCGGGAGAUUUUUUCCUCGAGCAA
# Variants of: B1
# Experiment: nonsense suppression (GFP-seq) (ratio to wild type); higher = more function; SUP4oc tRNA, yeast GFP reporter sort-seq
# How it was run: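 Nonsense suppression (GFPSEQ) is the median GFP/RFP ratio of each sorting bin, weighted by the variant's estimated share of cells in that bin and expressed relative to the unmutated parent tRNA. Yeast strains carried genome-integrated variants of an ochre-suppressor tRNA from a library with ~3% random mutations, plus a galactose-driven GFP ochre reporter and RFP, and were grown in raffinose/galactose medium containing 80 mg/L adenine. Cells were sorted into GFP/RFP bins, each bin was Illumina-sequenced (phred ≥30), and variants were kept only with ≥100 reads and ≥30 cells.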
row,Variant,nonsense suppression
1,CACUCGGUAGCCAAGUUGGUUUAAGGGGCAAGACUUUAAUUUAUCACUACGAAAUCUUGAGAUUGGGGGUUCGGCUCGCCCCCGGGAGAUUUUUUCCUCGAGCAA [U2A C27G C64U C68G A74G],≤ 0.026
2,CACUCGGUAGCCAAGUUAGUUUAAGGCGCAAGACUUUAAUUUAUCACUACGAAAUCUUGAGAUCGGGCGUUCGACUCGCCCCCGGGAGAUUUUUUCCUCGAGCAA [U2A G18A],≤ 0.026
3,CACUCGGUAGCCAAGUUGGUUUAAGGCUCAAGACUUUAAUUUAUCACUACGAAAUCUUGAGAUCGGGCGUUCUACUCGCCCCCGGGAGAUUUUUUCCUCGAGCAA [U2A G28U G73U],≤ 0.026
4,CACUCGGUAGCCAAGUUGGUUUAAGGCGCAAGACUUUAAUUUAUCACUACGAAAUCUUGAGAUCGGGCGUUCGACUCGCACCCAGGAGAUUUUUUCCUCGAGCAA [U2A C80A G84A],≤ 0.026
5,CACUCGGUAGCCAAGUUGGUUUAAGGCGCAAGACUUUAAUUUAUCACUACGAAAUCUUGAGAUCGGGCGUUCGACUCUCCCCCGGGAGAUUUUUUCCUCGAGCAA [U2A G78U],≤ 0.026
6,CACUCGGUAGCCAAGUUGGUUUAAGGCGCAAGACUUUAAUUUAUCACUACGAAAUCUUGAGAUCGGGCGUUCGACUCGCUCCCGGGAGAUUUUUUCCUCGAGCAA [U2A C80U],0.0354
7,CACUCGGUAGCCAAGUUGGUUUAAGGCGCAAGACUUUAAUUUAUCACUACGAAAUCUUGAGAUCGGGCGUUCGACUGGCCCCCGGGACAUUUUUUCCUCGAGCAA [U2A C77G G88C],≤ 0.026
8,CACUCGGUAUCCAAGUUGGUUUAAGGCGUAAGACUUUAAUUUAUCACUACGAAAUCUUGAGACCGGCCGUUCGACUCGCCCCCGGGAGAUUUUUUCCUCGAGCAA [U2A G10U C29U U63C G67C],≤ 0.026
9,CACUCGGUAACCAAGUUGGUUUAAGGCGCAAGUCUUUAAUUUAUCACUACGAAAUCUUGAGACCGGGCGUUCGACUCGCCCCCGGGAGAUUUUUUCCUCGAGCAA [U2A G10A A33U U63C],≤ 0.026
10,CACUCGGUAGCCAAGUUGGUUUAAGGCGCAAUACUUUAAUUUAUCACUACGAAAUCUUGAGAUCGGGCGUUCGACUCGCCCCCGGGAGAUUUUUUCCUCGAGCAA [U2A G32U],≤ 0.026
11,CACUCGGUAGCCAAGUUGGUUUAAGGCGCAAGACUUUAAUUUAUCACUACGAAAUCUUGAGAUUGGGCGUUCGACUCGCCCCCGGUAGUUUUUUUCCUCGAGCAA [U2A C64U G86U A89U],≤ 0.026
12,CACUCGGUAGCCAAGUUGGUUUAAGGCGCAACACUUUAAUUUAUCACUACGAAAUCUUGAGAUCGGGCGUUUGACUCGCCCCCGGGAGAUUUUUUCCUCGAGCAA [U2A G32C C72U],≤ 0.026
13,CACUCGGUAGCCAAGUUGGUUUAAGGCGCAAGACUUUAAUUUAUCACUACGAAAUCUUCAGAUCGGGCGUUCGACUCGCCCCCGAGAGAUUUUUUCCUCGAGCAA [U2A G59C G85A],≤ 0.026
14,CACUCGGUACCCAAGUUGGUAUAAGGCGCAAGACCUUAAUUUAUCACUACGAAAUCUUGAGAUCGGGCGUUCGACUCGCCCCCGGGAGAUUUUUUCCUCGAGCAA [U2A G10C U21A U35C],≤ 0.026
15,CACUCGGUAGCCAAGUUGGUUUAAGGCGCAAGACUUUAAUUUAUCACUACGAAAUCUUGAGAUCGGGCGUUUGACUCGCCCCCGGGAGAUUUUUUCCUCGAGCAA [U2A C72U],≤ 0.026
16,CACUCGGUAGCCAAGUUGGUUUAAGGCACAAGACUUUAAUUUAUCACUACGAAAUCUUGAGAUCGGGCGUUCGACUCGCCCCCGGGAGAUUUUUUCCUCGAGCAA [U2A G28A],≤ 0.026
17,CACUCGGUAGCCAAGUUGGUUUAAGCCGCUAGACUUUAAUUUAUCACUACGAAAUCUUGAGAUCGGACGUUCGACUCGCACCCGGGAGAUUUUUUCCUCGAGCAA [U2A G26C A30U G67A C80A],≤ 0.026
18,CACUCGGUAGCCAAGUUGGUUUAAGGCGCAAGACUUUAAUUUAUCACUACGAAAUCUUGAGAUCGGGCCUUCGACUCGCCCCCGGGAGAUUUUUUCCUCGAGCAA [U2A G69C],≤ 0.026
19,CACUCGGUAGCCAAGAUGGUUUAAGGCGCAAGACUUUAAUUUAUCACUACGAAAUCUUGAGAUCGGGCGUUCGACUCGCCCCCGGGAGAUUUUUUCCUCGAGCAA [U2A U16A],≤ 0.026
20,CACUCCGUAGCCAAGUUGGUUUAAGGCGCAAGACUUUAAUUUAUCACUACGAAAUCUUGAGAUCGGGCGUUCGACUCGCCGCCGGGAGAUUUUUUCCUCGAGCAA [U2A G6C C81G],≤ 0.026
21,CACUCGGUAGCCAAUUUGCUUUAAGGCGCAACACUUUAAUUUAUCACUACGAAAUCUUGAGAUCGGGCGUUCGACUCGCCCCCGGGAGAUUUUUUCCUCGAGCAA [U2A G15U G19C G32C],≤ 0.026
22,CACCCGGUAGCCAAGUUGGUUUAAGGCGCAAGACUUUAAUUUAUCACUACGAAAUCUUGAGCUCGGUCGUUCGACUCGCCCCCGGGAGAUUUUUUCCUCGAGCAA [U2A U4C A62C G67U],≤ 0.026
23,CACUCUGUAGCCAGGUUGGUUUAAGGCGCAAGACUUUAAUUUAUCACUACGAAAUCUUGAGAUCGGGCGUUCGACUCGCCCCCGAGAGAUUUUUUCCUCGAGCAA [U2A G6U A14G G85A],≤ 0.026
24,CACUCGCGAGCCAAGUUGGUUUAAGGCGCAAGACUUUAAUUUAUCACUACGAAAUCUUGAGAUCGGGCGUUCGACUCGCCCCCGGGAGAUUUUUUCCUCGAGCAA [U2A G7C U8G],≤ 0.026
25,CACUCGCUAGCCAAGUUGGUUUAAGGCGCGAGACUUUAAUUUAUCACUACGAAAUCUUGAGAUCGGGCGUUCGACUCGCCCCCGGGAGAUUUUUUCCUCGAGCAA [U2A G7C A30G],≤ 0.026
26,CACUCGGUAGCCAAGUUGGUUUAAGUCGCAAGACUUUAAUUUAUCACUACGAAAUCUUGAGAUCGGGCGUUCGACUCGCCCCCGGGAGAUUUUUUCCUCGAGCAA [U2A G26U],≤ 0.026
27,CACUCCGUAGCCAAGUUGGUUUAAGGCGCAAGAAUUUAAUUUAUCACUACGAAAUCUUGAGACCGGGCGUUCGACUCGCCCCCGGGAGAUUUUUUCCUCGAGCAA [U2A G6C C34A U63C],≤ 0.026
